Experimental data taken from PubChem BioAssay (NCATS).
The inconclusive results got no clear call from the source; some entries with a clear call stand among them for comparison. For some assays here: Potencies of inconclusive entries are doubtful fits and often do not repeat. Activity calls are given as the source filed them. Unless noted, calls come from the whole dose curve; as a rule, active = well fitted curve in the direction sought with a large enough effect; inconclusive = small, poorly fitted or top-dose-only effect, or another doubt; inactive = no such curve, though single readings can be large; an effect the other way counts as inactive or inconclusive.

Legend:
[1] = biological target: Fructose-bisphosphate aldolase A (Oryctolagus cuniculus) (UniProt P00883); assay: qHTS Assay for Inhibitors of Fructose-1,6-bisphosphate Aldolase from Giardia Lamblia: Rabbit FBPA Selectivity (AID 2794); note: nearly all actives have a fitted effect of over 60% in size; note: potency is the fitted concentration of half-maximal effect
How it was run: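 Each compound, dosed at up to 57.5 uM final, was first mixed with coupling enzyme reagent for 10 min. Aldolase substrate and the AmpLite Red coupling system then ran 20 min at RT before a single fluorescence read.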

[2] = AP1 Signaling Pathway (AID 357; active = well fitted curve in either direction with a large enough effect, not every such curve was filed as active; inconclusive = small, poorly fitted or top-dose-only effect, or another doubt; note: top concentration of the series differs between compounds; % is set by controls: 0 for no effect and ±100 for the full control effect); conditions: ME-180 (cervical carcinoma) AP-1-bla reporter, EGF-induced, beta-lactamase ratio, 5 h; at 17.2 µM (top of the series) unless noted
How it was run: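 In this screen, ME-180 cells in Opti-MEM with 0.5% dialyzed FBS received EC50 EGF and compound titrations for 5 h. AP-1 reporter beta-lactamase was detected via CCF4 ratio, giving AC50 for positive and negative modulators.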

[3] = qHTS Assay for Inhibitors of Fructose-1,6-bisphosphate Aldolase from Giardia Lamblia: Giardia lamblia growth inhibition (AID 2785); conditions: Giardia lamblia trophozoite growth inhibition; activity change, negative = inhibition: at 57.5 µM (top of the series); note: nearly all actives have a fitted effect of over 70% in size; note: potency is the fitted concentration of half-maximal effect; for activity change, negative = inhibition: % is set by controls: 0 for no effect and ±100 for the full control effect
How it was run: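 G. lamblia WB trophozoites (100 cells/well) in modified TYI-S-33 medium, pH 7.0, were exposed to pin-transferred compounds or DMSO for 48 h at 37C in sealed bags. Viability was read as ATPlite luminescence after 20 min at room temperature.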

[4] = biological target: Fructose-bisphosphate aldolase (Giardia intestinalis (strain ATCC 50803 / WB clone C6)) (UniProt A8B2U2); assay: qHTS Assay for Inhibitors of Fructose-1,6-bisphosphate Aldolase from Giardia Lamblia: Primary screen confirmation (AID 2787); note: nearly all actives have a fitted effect of over 45% in size; note: potency is the fitted concentration of half-maximal effect
How it was run: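 Confirmation of primary hits by qHTS up to 57.5 uM final compound. Enzyme at 40 nM with 30 uM ZnCl2, 10 min RT pre-incubation, then substrate/coupling/resorufin-forming detection mix for 20 min before fluorescence read at 525/598 nm.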

[5] = qHTS Assay for Inhibitors of Fructose-1,6-bisphosphate Aldolase from Giardia Lamblia: Mammalian cellular toxicity (AID 2786); conditions: mammalian cell viability counter-screen; viability change, negative = toxicity: at 57.5 µM (top of the series);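 note: compound exposure lasted 48 h before reading; % is set by controls: 0 for no effect and ±100 for the full control effect; nearly all actives have a fitted effect of over 60% in size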
How it was run: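 Chinese hamster ovary cells (250/well, DMEM with 10% FBS and penicillin/streptomycin) were exposed to compounds for 48 h at 37 °C, 5% CO2. Viability was taken as cellular ATP content, read with ATPlite reagent after 20 min.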

[6] = biological target: Cytochrome P450 1A2 (Homo sapiens) (UniProt P05177); assay: p450-cyp1a2 (AID 410; calls by dose curve; note: potency is the fitted concentration of half-maximal effect)
How it was run: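 Inhibition was calculated relative to 57 uM furafylline (full inhibition). The reaction used human CYP1A2 at 20nM with Luciferin-ME at its Km, 100uM, driven by an NADPH-regenerating system for 60 min at room temperature.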

[7] = NFAT Signaling Pathway (AID 444; active = well fitted curve in either direction with a large enough effect, not every such curve was filed as active; inconclusive = small, poorly fitted or top-dose-only effect, or another doubt;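 note: carbachol stimulus at about its EC50 of 1 µM final; % is set by controls: 0 for no effect and ±100 for the full control effect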); conditions: Jurkat NFAT-bla M1, carbachol, beta-lactamase ratio, 5 h
How it was run: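 Jurkat cells carrying an NFAT-driven β-lactamase reporter and co-transfected muscarinic M1 receptor were treated with compound plus carbachol (1 uM final, an EC50 level) for 5 h at 37 °C. CCF4 loading followed for 1 h at RT; 460/530 nm ratio gave %activity.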

[8] = biological target: Cytochrome P450 2C9 (Homo sapiens) (UniProt P11712); assay: qHTS Assay for Inhibitors and Substrates of Cytochrome P450 2C9 (AID 883); note: potency is the fitted concentration of half-maximal effect; nearly all actives have a fitted effect of over 60% in size
How it was run: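 A luminogenic readout tracked human CYP2C9 (10nM) converting deoxyluciferin (100uM, at KM) in 25mM KPO4 during 60 min at 37C with regenerated NADPH. Values normalized to 57uM sulphaphenazole as complete inhibition.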

[9] = qHTS Assay for Identification of Small Molecule Antagonists for NFkB Signaling Pathway (AID 895; active = well fitted inhibition curve with a large enough effect in the signal ratio, with a control signal flat, not every such curve was filed as active; inconclusive = small, poorly fitted or top-dose-only effect, or effect the other way, or a change in a side signal; the % refers to the signal ratio; note: % is set by controls: 0 for no effect and ±100 for the full control effect); conditions: NFkB beta-lactamase reporter cells, FRET ratio 460/530; activity change, negative = inhibition: at 38.3 µM (top of the series) unless noted
How it was run: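 NFkB-bla ME-180 cervical carcinoma cells with beta-lactamase reporter under NFkB response element; compounds added, then TNF alpha at 10 pM final (EC50), 5 h at 37 C. LiveBLAzer substrate 2 h, room temperature; emission 460/530 nm at 405 nm excitation.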

[10] = qHTS Assay for Identification of Small Molecule Agonists for Thrombopoietin (TPO) Signaling Pathway (AID 917); note: potency is the fitted concentration of half-maximal effect
How it was run: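 Reporter: GpIIb promoter–luciferase in murine Ba/F3 expressing human TPO receptor. Pre-starved of IL-3 overnight; compounds with 26 pM TPO, 24 hrs, 37 C/5% CO2; luminescence read.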

[11] = biological target: Muscarinic acetylcholine receptor M1 (Rattus norvegicus) (UniProt P08482); assay: qHTS Assay for Antagonists of Acetylcholine Muscarinic M1 Receptor: Kinetic Measurement of Intracellular Calcium Response (AID 943); note: potency is the fitted concentration of half-maximal effect; nearly all actives have a fitted effect of over 75% in size
How it was run: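 Intracellular calcium flux, recorded with Fluo-4 in a kinetic plate reader, served as signal; the response to carbachol at EC80 (100 nM final) was taken as maximal over minimal fluorescence after a 10 min compound pre-incubation in rat M1-CHO cells.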

[12] = biological target: Muscarinic acetylcholine receptor M1 (Rattus norvegicus) (UniProt P08482); assay: qHTS Assay for Antagonists of Acetylcholine Muscarinic M1 Receptor: Measurement of IP-One Response (AID 944); note: nearly all actives have a fitted effect of over 75% in size
[13] = biological target: Ubiquitin carboxyl-terminal hydrolase 1 (Homo sapiens) (UniProt O94782); assay: Inhibitors of USP1/UAF1: Pilot qHTS (AID 504865);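 note: rhodamine fluorescence freed from ubiquitin-rhodamine substrate followed over time; potency is the fitted concentration of half-maximal effect; nearly all actives have a fitted effect of over 35% in size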
How it was run: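 Deubiquitinase activity followed as kinetic rhodamine fluorescence release from 150 nM Ub-Rho. 1 nM USP1/UAF1 with compound, after 15 min room-temperature preincubation, in HEPES pH 7.8 buffer containing TCEP, EDTA, BSA and Tween-20.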

[14] = qHTS for Inhibitors of the vitamin D receptor (VDR): Hit Validation using a Texas Red Assay (AID 602201); note: potency is the fitted concentration of half-maximal effect
How it was run: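 Fluorescence polarization (Ex 595/Em 615 nm) of Texas Red (7 nM) with 1.5 uM VDR-LBD and LG19078 (final concentrations). Compounds were incubated for 2 hours at room temperature.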
Tags give direction and shape of the fitted curve.

UniProt A8B2U2, sequence (A8B2U2 whole entry, looked up): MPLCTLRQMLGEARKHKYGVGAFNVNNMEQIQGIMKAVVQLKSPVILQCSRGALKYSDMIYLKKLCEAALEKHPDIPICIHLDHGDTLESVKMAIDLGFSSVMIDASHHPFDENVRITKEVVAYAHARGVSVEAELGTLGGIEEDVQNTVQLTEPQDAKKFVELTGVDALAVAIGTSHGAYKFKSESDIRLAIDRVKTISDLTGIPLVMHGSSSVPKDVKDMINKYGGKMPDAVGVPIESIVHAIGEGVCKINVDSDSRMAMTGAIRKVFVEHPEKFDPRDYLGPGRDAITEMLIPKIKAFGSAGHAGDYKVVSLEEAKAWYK
UniProt P00883, sequence (P00883 whole entry, looked up): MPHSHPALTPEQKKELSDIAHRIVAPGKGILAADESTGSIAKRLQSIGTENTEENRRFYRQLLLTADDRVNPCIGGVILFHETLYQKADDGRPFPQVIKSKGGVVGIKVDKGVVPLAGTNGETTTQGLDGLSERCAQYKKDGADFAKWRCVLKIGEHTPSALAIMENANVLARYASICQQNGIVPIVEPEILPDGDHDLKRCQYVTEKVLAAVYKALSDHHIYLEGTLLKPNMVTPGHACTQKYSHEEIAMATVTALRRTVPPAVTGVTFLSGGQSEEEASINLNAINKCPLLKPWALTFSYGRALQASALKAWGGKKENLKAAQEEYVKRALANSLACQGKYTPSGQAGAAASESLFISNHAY
UniProt P08482, sequence (P08482 whole entry, looked up): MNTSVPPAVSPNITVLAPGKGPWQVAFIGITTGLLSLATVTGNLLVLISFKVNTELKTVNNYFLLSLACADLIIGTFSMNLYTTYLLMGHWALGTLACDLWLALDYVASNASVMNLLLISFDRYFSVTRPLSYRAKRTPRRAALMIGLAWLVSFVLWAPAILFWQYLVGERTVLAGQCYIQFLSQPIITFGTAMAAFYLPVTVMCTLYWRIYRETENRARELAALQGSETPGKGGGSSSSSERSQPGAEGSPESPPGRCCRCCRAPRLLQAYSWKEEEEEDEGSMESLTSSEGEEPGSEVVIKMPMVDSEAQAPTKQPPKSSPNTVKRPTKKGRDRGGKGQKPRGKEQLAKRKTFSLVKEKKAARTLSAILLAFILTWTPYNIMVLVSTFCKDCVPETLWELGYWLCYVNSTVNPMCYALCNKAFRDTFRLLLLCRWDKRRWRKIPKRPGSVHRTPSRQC
UniProt P05177, sequence (P05177 whole entry, looked up): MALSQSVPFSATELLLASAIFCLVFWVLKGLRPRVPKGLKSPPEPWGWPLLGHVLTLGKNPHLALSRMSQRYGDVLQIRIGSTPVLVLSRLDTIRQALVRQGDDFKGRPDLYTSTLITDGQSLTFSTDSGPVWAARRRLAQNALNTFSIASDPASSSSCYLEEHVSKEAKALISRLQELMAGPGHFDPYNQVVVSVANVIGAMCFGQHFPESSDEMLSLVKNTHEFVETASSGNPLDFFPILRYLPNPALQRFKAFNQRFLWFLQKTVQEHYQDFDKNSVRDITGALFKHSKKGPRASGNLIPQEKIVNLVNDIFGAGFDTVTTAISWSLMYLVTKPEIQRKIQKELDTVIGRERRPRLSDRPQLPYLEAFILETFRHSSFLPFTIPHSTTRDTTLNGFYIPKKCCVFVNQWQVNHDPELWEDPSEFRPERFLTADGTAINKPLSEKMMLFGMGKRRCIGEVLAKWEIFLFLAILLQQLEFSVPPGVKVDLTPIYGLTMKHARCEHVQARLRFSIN
UniProt P11712, sequence (P11712 whole entry, looked up): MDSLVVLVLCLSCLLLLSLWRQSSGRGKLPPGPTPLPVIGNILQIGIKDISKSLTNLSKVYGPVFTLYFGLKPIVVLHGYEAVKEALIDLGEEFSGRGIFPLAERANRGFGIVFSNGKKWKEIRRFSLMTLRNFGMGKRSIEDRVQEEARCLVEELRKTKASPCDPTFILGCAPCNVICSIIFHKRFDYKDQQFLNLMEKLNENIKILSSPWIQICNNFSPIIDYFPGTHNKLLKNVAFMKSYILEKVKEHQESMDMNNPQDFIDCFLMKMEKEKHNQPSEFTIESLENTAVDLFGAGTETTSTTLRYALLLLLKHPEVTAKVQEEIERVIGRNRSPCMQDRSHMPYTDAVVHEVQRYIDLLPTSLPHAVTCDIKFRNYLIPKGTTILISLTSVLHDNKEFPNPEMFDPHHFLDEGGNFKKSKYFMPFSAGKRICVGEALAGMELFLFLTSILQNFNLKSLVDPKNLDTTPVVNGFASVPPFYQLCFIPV
UniProt O94782, sequence (O94782 whole entry, looked up): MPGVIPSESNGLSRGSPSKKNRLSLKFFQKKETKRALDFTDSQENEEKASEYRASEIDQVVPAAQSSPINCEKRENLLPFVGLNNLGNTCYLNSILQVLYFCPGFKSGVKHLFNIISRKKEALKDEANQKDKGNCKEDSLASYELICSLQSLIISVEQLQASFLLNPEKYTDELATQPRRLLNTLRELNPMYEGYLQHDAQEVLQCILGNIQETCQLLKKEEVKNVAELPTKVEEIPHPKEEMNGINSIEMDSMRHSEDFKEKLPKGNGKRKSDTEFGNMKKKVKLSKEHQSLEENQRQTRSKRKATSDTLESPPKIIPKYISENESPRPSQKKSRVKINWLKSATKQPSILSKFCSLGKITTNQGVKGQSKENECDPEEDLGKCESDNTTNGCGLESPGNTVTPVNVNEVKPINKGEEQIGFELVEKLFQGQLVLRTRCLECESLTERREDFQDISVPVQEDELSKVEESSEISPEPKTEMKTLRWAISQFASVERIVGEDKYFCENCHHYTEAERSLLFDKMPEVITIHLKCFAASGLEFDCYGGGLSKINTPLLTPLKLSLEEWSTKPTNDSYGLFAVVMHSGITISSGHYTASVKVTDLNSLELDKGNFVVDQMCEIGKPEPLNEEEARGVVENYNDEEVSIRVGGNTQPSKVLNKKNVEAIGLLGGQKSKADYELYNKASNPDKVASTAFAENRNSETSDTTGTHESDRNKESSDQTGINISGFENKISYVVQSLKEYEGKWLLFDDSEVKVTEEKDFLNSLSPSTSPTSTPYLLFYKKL

NNc1n[nH]c(=S)n1N
Potency [1]: active: 18300 nM

CN(C)CCCc1cccnc1
activity change, negative = inhibition [2]: inactive: 3.48% [at 7.69 µM]

Oc1cccc2nc3ccccc3nc12
activity change, negative = inhibition [3]: inactive: -1.69% [at 10.4 µM]
Potency [4]: inconclusive: 2510 nM [inhibitor, partial curve]

O=C(Nc1ccc(F)cc1)Oc1ccc[nH]c1=O
Potency [1]: inconclusive: 919 nM [inhibitor, full curve]

COc1ccccc1CN1CCN(C(=O)COc2ccc3ccccc3c2)CC1
Potency [4]: inactive
Potency [1]: inactive

O=[N+]([O-])c1cccc(CN2CCN(Cc3ccc(Cl)cc3)CC2)c1
activity change, negative = inhibition [3]: inconclusive: -32.2% [inhibitor]

CCN(CC)CCN=C(C)c1c(O)n(-c2ccccc2OC)c(=O)[nH]c1=O
activity change, negative = inhibition [2]: inconclusive: 32.5% [activator]

CCCCCCNC(=O)N[C@H](Cc1ccc(O)cc1)C(=O)NCCC[C@H]1CN2C(=NC[C@H]2CCC)N1CC1CCC1
Potency [5]: inactive

CN1CC[C@]2(C)c3cc(O)ccc3N(C)[C@@H]12
activity change, negative = inhibition [2]: inconclusive: 42.3% [activator] [at 38 µM]
Potency [6]: inconclusive: 31600 nM [decreasing]
activity change, negative = inhibition ([7]; at 17.2 µM (top of the series)): inconclusive: -66.1% [inhibitor]
activity change, negative = inhibition ([7]; at 38 µM (top of the series)): inconclusive: -60.2% [inhibitor]
Potency [8]: active: 25100 nM
activity change, negative = inhibition [9]: inconclusive: 4.54%
Potency [10]: inconclusive: 12600 nM [inhibitor, partial curve]
Potency [11]: inconclusive: 89.1 nM [inhibitor, partial curve, poor fit]
Potency [12]: inactive
Potency [4]: active: 2240 nM
Potency [1]: active: 3160 nM
Potency [13]: active: 2820 nM

CCOC(=O)[C@@]1(C#N)[C@@H]2C=CC(C(N)=O)=CN2[C@@H](C(N)=O)[C@@H]1c1cccc(Cl)c1
activity change, negative = inhibition [2]: inactive: -3.06%

O=C1C(=O)c2ccccc2-c2ccccc21
Potency [3]: active: 12600 nM
Potency [4]: active: 1120 nM
Potency [1]: active: 891 nM
Potency [14]: inconclusive: 2510 nM [inhibitor, full curve]

COc1cc2c3cc1Oc1cc(ccc1O)C[C@@H]1c4c(cc(OC)c(O)c4Oc4cccc(c4)C[C@H]3N(C)CC2)CC[N+]1(C)C
activity change, negative = inhibition [2]: inactive: -1.61%

N#CC(C#N)=C(C#N)c1ccc(Nc2ccccc2)cc1
Potency [3]: inconclusive: 50100 nM [inhibitor, partial curve, poor fit]
Potency [5]: inactive

N[C@@H](CSC1c2ccccc2-c2ccccc21)C(=O)O
activity change, negative = inhibition [2]: inactive: 0.63% [at 7.69 µM]

CCCCOCCCn1c(N)c(C(=O)OC(C)COC)c2nc3ccccc3nc21 (configuration not stated)
activity change, negative = inhibition [2]: inactive: -11.7%
